# Whole data set: some 33,000 sequences, median “E-score (-0.5 to 0.5)” near -0.043, cut for the highest 2% near 0.37. The list shows a part of the results.
# Target: T1, Upc2 (UniProt Q12151)
# T1 sequence: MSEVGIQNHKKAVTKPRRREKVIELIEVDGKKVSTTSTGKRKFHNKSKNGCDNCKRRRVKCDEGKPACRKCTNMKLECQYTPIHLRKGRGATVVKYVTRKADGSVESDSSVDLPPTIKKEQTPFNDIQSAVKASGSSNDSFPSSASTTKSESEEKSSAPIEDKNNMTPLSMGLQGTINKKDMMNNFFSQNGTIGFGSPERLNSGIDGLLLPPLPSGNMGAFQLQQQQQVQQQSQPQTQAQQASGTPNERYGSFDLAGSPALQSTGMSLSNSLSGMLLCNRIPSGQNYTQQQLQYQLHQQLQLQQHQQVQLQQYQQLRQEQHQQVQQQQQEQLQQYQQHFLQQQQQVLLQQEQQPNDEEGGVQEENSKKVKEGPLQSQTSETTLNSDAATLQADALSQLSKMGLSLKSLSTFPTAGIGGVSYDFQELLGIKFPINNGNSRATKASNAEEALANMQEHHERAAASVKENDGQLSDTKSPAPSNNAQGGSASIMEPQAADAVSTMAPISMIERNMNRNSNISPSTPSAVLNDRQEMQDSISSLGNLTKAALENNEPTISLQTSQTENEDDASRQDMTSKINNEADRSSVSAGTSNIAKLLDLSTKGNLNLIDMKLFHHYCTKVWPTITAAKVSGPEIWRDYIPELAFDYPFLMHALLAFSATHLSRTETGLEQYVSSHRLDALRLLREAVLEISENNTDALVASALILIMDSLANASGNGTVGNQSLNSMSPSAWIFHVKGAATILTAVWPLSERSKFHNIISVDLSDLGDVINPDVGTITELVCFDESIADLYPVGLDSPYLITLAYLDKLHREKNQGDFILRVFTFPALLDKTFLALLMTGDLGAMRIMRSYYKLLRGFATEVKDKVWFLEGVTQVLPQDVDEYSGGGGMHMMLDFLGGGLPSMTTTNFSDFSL
# Experiment: PBM E-score (8-mer binding enrichment) (E-score (-0.5 to 0.5)); higher = stronger / more preferred TF binding; most listed sequences are background and not binding sites
# Conditions: protein concentration: 200 nM; construct: GST-full length
# How it was run: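 Using PURExpress in vitro transcription/translation, GST-tagged yeast transcription factors were made in full-length or DNA-binding-domain form. These were applied at about 100-200 nM to double-stranded universal all-10-mer Agilent arrays, and bound protein was detected with fluorescent anti-GST. Scans were normalised with masliner before the Universal PBM Analysis Suite assigned E-scores to ungapped eight-base words pooled with their reverse complements.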
row,Sequence,PBM E-score
1,CCAACCGA,0.188
2,AGGCCCCA,-0.0988
3,ACCCCTAA,-0.147
4,ACAAAGGT,-0.035
5,ACAAACGT,0.0906
6,ACACACAA,-0.019
7,CGAGCGCC,0.199
8,CGAGGACC,0.25
9,AGCTGAGG,-0.174
10,CCGGTTCG,0.0888
11,GGTTCCAC,-0.202
12,CGCCCGGA,-0.196
13,CACTGCAA,0.034
14,CCATAAGG,-0.209
15,TAAGGTCA,-0.264
16,AATCGGCG,-0.0419
17,ACGTCGCT,0.182
18,ACGTAGAA,0.167
19,TGAATCAA,0.0171
20,ATCATCTC,-0.0541
21,GTTCAACA,0.0945
22,AAACACCA,-0.157
23,ACGGCCCA,0.147
24,CAGTCTAG,-0.0815
25,AGTTTCCG,0.178

row,Sequence,PBM E-score
1,ATTGGGCA,-0.212
2,CTAGGTCA,-0.214
3,ATCGCTGG,-0.199
4,CCCATCAA,0.0682
5,TGCTGCCA,-0.146
6,CACCTTCC,-0.0971
7,ATTCCACA,0.0345
8,AAAGTCTA,-0.119
9,GAGAACAA,0.113
10,ACTGACGC,-0.123
11,AGGACTTG,-0.287
12,GCGAAGGA,-0.00978
13,GTATAGGA,0.341
14,GCCCCAGC,-0.192
15,AAGTTCCC,-0.169
16,AGTTTGAA,-0.0634
17,CTCTCAGC,-0.195
18,CCCGCTCG,0.125
19,ACGCAGAA,0.108
20,ACAATTGA,0.102
21,GTTTAAGA,0.288
22,ACCGCAGC,-0.134
23,ATACCAGG,-0.113
24,AGATTAAC,0.11
25,CCACGGGC,-0.222

row,Sequence,PBM E-score
1,CACACGGA,-0.111
2,GGGCTACC,-0.258
3,CTGCGACA,0.00769
4,ATAGTACG,0.221
5,CAATGATC,-0.0458
6,ATTGGACA,-0.0219
7,AAGCCAAG,-0.233
8,CATCGATG,-0.0722
9,ATGTAGAC,-0.248
10,ATAGTTAG,-0.0248
11,TAGGATGA,0.038
12,GTATTGTA,0.216
13,CTCAAGAG,-0.245
14,AGCTCTAA,-0.192
15,AGCATGCA,-0.289
16,CACTAATA,-0.0717
17,AGACACCT,-0.148
18,CCTTACCG,0.12
19,ATATTGTA,0.073
20,TAACAACA,0.185
21,CTTGTTGC,-0.27
22,ATTAGCCG,0.0535
23,CACGTGCG,0.0129
24,CACCTCCA,-0.19
25,ACACGTTA,-0.0364

row,Sequence,PBM E-score
1,AAAAATTC,-0.11
2,AAAAGCAC,0.0633
3,ACCATAGC,-0.298
4,GTCTGGTA,-0.0113
5,GATGAAGC,-0.144
6,GGCTCGAA,-0.0434
7,TCTACCCA,0.00742
8,GAGGACCC,-0.125
9,ATAATCAG,-0.0572
10,CATGGGTA,-0.1
11,CGTATGAC,0.42
12,ACCTAGCG,-0.0208
13,ATAGCTGG,-0.133
14,AGGGGCGG,-0.037
15,CAATAGGG,-0.0137
16,CGAGTCCC,0.0912
17,ACATTGTC,0.091
18,AAACCCAC,0.11
19,CACGTAAG,0.105
20,CCGCTGTC,-0.113
21,AAGCCTGC,-0.208
22,ATTGACAA,-0.0998
23,TATACCGA,0.333
24,CCAGCAAA,0.0457
25,AAATTTGC,-0.0327

row,Sequence,PBM E-score
1,AAATACTA,-0.0604
2,CATATGGG,-0.058
3,CAAATCAC,0.0792
4,AGATGCCT,-0.0725
5,AGTAAACG,0.442
6,CGATGAAA,0.0692
7,AATACTTC,-0.1
8,CGTAACCC,0.259
9,ACATCGTC,-0.00985
10,CATTGTCC,-0.182
11,GTCGCACA,0.227
12,GCGCCAAA,0.00017
13,CCTCGGAC,0.199
14,ACTCGACG,-0.00328
15,GCCTCCGC,-0.121
16,GCCGTCCC,0.0247
17,CCGATTAA,0.0714
18,CTCTTTGC,-0.24
19,AACAGTTC,0.017
20,GTTAACAA,0.0432
21,CGGTGCAG,-0.12
22,ACCTCTAC,0.222
23,GGACCCCA,0.0342
24,CAACTTTC,-0.00654
25,GAGAGGTA,-0.105

row,Sequence,PBM E-score
1,GTAGATTA,0.0947
2,CTAGACAC,-0.184
3,ATAGGCTA,-0.288
4,CCTAATTC,-0.158
5,TGCAGGAA,-0.136
6,AAAAACCG,-0.0777
7,AAGACGGA,0.0195
8,TATCTGAA,-0.05
9,CTCGACCC,-0.186
10,ATAGGAGC,-0.224
11,AATTTCGA,0.0126
12,GAAGAGAA,-0.0848
13,GCTCCTTA,-0.153
14,TCGCCCCA,-0.253
15,AACTACGA,0.175
16,AAGCACTA,0.0637
17,CACTAGGA,-0.245
18,TATTGGCA,-0.228
19,ATGTTAGA,-0.313
20,CTATTATA,-0.0976
21,CCACTACC,-0.178
22,GGAGCGCC,-0.192
23,CCTCCGAC,-0.174
24,CCCGAGCC,-0.0326
25,CTAACACA,0.0186

row,Sequence,PBM E-score
1,CATCTGTC,-0.146
2,CCAGTCCA,-0.353
3,CCCAAATC,-0.0922
4,AACAGGAA,-0.00503
5,AGCAGGTC,-0.157
6,AGACTGCA,-0.241
7,CCAGGATC,-0.0701
8,ATCACTCG,0.226
9,AGCTGCAG,0.0103
10,GTTTTAGA,-0.118
11,CCTAAAGG,-0.19
12,ATGCGAAG,0.269
13,CCAAAATA,-0.0313
14,AATCGATG,0.105
15,AAAGGTAC,0.0683
16,TCCCCCGA,-0.312
17,ATACTGAG,0.132
18,CATGTCAC,-0.0261
19,CAACAGAA,-0.148
20,ATTAGAAG,0.0049
21,AGGTTGCA,-0.0241
22,ATCCGAGG,0.18
23,GATGGTTA,0.12
24,CAGACAAG,-0.011
25,AAATCGAA,0.00511

row,Sequence,PBM E-score
1,CCAGGAGG,-0.279
2,CAGGCCAG,-0.033
3,AACGAATG,0.416
4,CAGTATAC,0.329
5,CAAATACG,0.311
6,CGGGGTTC,0.0784
7,GGGGGAAA,-0.263
8,CTAAATGC,-0.188
9,AAAGGGAA,-0.131
10,AAATCATG,-0.157
11,CCGTAAAG,0.395
12,GGCGCCCA,-0.0699
13,CTGGTGGA,-0.126
14,GGAGCCCC,-0.0924
15,CAAAGAGC,-0.169
16,CTTTTCAA,0.0421
17,ATTCAGCA,-0.12
18,CGCCGAGC,0.0222
19,CCTTGTGC,-0.0886
20,CGTAGACA,0.192
21,TGCCCCAA,-0.136
22,GAGGTTAC,0.104
23,GAAAATAC,0.133
24,AACGATCT,0.381
25,GCTACTCA,-0.168

row,Sequence,PBM E-score
1,ATACAGGA,0.0794
2,AGCGCACT,-0.207
3,ACCATCGG,-0.119
4,ACCGCGTA,0.244
5,CCAACGGA,-0.326
6,AGAAACTC,-0.0386
7,CCGGTCAC,-0.185
8,CTCAACTC,0.0603
9,ACGTTCGG,0.0616
10,GCACGAGC,-0.0167
11,GCATAGAC,-0.0874
12,AGAAACAT,0.0695
13,AGGGACCA,0.00835
14,GCTCCGCC,-0.128
15,ACTGTTAG,-0.201
16,AGTCTACC,0.0177
17,GCGTACTA,0.0874
18,ATGAGCAA,-0.105
19,AAGACGAT,0.063
